Among the data in US20060193772A1, “Drugs for treating cancer” (priority 2003, published 2006) are IC50 values, retold here.

A number of entries come with more than one value. The list is limited to them. An entry can have further records. The values listed for one entry appear to be repeats on other runs, samples or individuals.

This assay concerns the target sm1.2 (manufactured by Upstate Biotechnology), commercially available anti-hIGF-I antibody. Put plainly: competitive ELISA: free hIGF-I inhibits binding of sm1.2 (4.0 µg/mL) to immobilised methylated BSA-hIGF-I.

A word on the IC50: it is the midpoint of a concentration-inhibition curve. The low end stands for higher potency, the high end for lower potency. With “human insulin-like growth factor-I (hIGF-I) (from UniProt P05019 49-118) (ligand)”, the half-maximal inhibitory concentration (IC50) is 1.2 µg/mL and 156 nM.
